Enrichment score data for 18 molecules are collected here from the supplement of paper PMC10369915.

This is one part of the list. Rule as the data show it: active = 3.2 or more and inactive = the rest. The signal is at background level for most entries.
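Also: displayed peptides selected on beads carrying the immobilized SH2 domain, with library peptides lacking any tyrosine serving as negative controls.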

One assay has as its target SHP2 C-SH2 domain E139D. Briefly: enrichment score (SH2-bound / input frequency) (ratio); bacterial display of known human phosphotyrosine sites (pTyr-Var adds point mutants) read by sequencing; higher = stronger binding; tyrosines were phosphorylated by kinases first. Conditions: peptide library: pTyr-Var.
With KAWGIYDCQQP [CYP3A7_Y75_V71A], the enrichment score is inactive: 1.06.
Consider IDPYIYTPFGS [CYP3A4_Y432], for which the enrichment score was inactive: 0.976.
In the case of LYDPDYMKVIL [CYP4A22_Y104], the enrichment score was inactive: 0.735.
As to MEVGQYFFVKC [CYBB_Y324_I325F], the enrichment score is inactive: 0.659.
Take GCAGKYIAMVM [CYP19A1_Y441]: the enrichment score is inactive: 1.16.
The same measure, in the same setting: to QSPQLYKQLCI [DARS1_Y253_M256L] belongs inactive: 0.586.
For the molecule LRLFSYSTTIR [CYP7B1_Y365_S363F], the enrichment score was inactive: 0.62.
Regarding GPIFRYDLGGA [CYP11B1_Y81], the enrichment score is inactive: 1.18.
As for NSVLVYRNGDP [DCDC2_Y22_K17N], the enrichment score was inactive: 0.736.
Take KAPPTYDTVLQ [CYP3A4_Y347]: the enrichment score was inactive: 0.608.
For KLQKKYGPISS [CYP17A1_Y60_Y64S], the enrichment score is inactive: 0.46.
As for LYDPDFMKVIL [CYP4A22_Y104_Y104F], the enrichment score is inactive: 1.22.
Turning to IDPFIYTPFGS [CYP3A4_Y432_YF], the enrichment score is inactive: 1.62.
In the case of VKKKLYEEIDQ [CYP17A1_Y329], the enrichment score is inactive: 0.905.
As to GQAPGYSYTAA [CYCS_Y47], the enrichment score was inactive: 0.697.
Turning to LFDPDYMKVIL [CYP4A22_Y104_YF], the enrichment score was inactive: 1.25.
As to TVLGEYALPKG [CYP24A1_Y407], the enrichment score was inactive: 0.922.
Still for that read-out and setting: under ESFCLYPPVPQ [CYP4B1_Y377_R375C] stands inactive: 0.896.

In another assay the target is SHP2 C-SH2 domain wild-type. Described as above. Conditions: peptide library: pTyr-Var.
Consider KAWGIYDCQQP [CYP3A7_Y75_V71A], for which the enrichment score is inactive: 1.04.
Consider IDPYIYTPFGS [CYP3A4_Y432], for which the enrichment score was inactive: 0.788.
As to LYDPDYMKVIL [CYP4A22_Y104], the enrichment score is inactive: 0.754.
With MEVGQYFFVKC [CYBB_Y324_I325F], the enrichment score is inactive: 1.14.
GCAGKYIAMVM [CYP19A1_Y441]: the enrichment score is inactive: 1.61.
As for QSPQLYKQLCI [DARS1_Y253_M256L], the enrichment score was inactive: 0.857.
As for LRLFSYSTTIR [CYP7B1_Y365_S363F], the enrichment score was inactive: 0.587.
As to GPIFRYDLGGA [CYP11B1_Y81], the enrichment score is inactive: 0.981.
Take NSVLVYRNGDP [DCDC2_Y22_K17N]: the enrichment score is inactive: 0.72.
As for KAPPTYDTVLQ [CYP3A4_Y347], the enrichment score is inactive: 0.683.
With KLQKKYGPISS [CYP17A1_Y60_Y64S], the enrichment score is inactive: 0.443.
As for LYDPDFMKVIL [CYP4A22_Y104_Y104F], the enrichment score was inactive: 1.13.
For IDPFIYTPFGS [CYP3A4_Y432_YF], the enrichment score is inactive: 1.18.
For VKKKLYEEIDQ [CYP17A1_Y329], the enrichment score was inactive: 0.851.
Consider GQAPGYSYTAA [CYCS_Y47], for which the enrichment score was inactive: 0.646.
On the same count and under the same terms, under LFDPDYMKVIL [CYP4A22_Y104_YF] stands inactive: 1.42; under TVLGEYALPKG [CYP24A1_Y407], inactive: 0.972.
Take ESFCLYPPVPQ [CYP4B1_Y377_R375C]: the enrichment score is inactive: 0.797.

For another assay, the target named is SHP2 N-SH2 domain L43F. Described as above. The conditions noted are these: peptide library: pTyr-Var.
KAWGIYDCQQP [CYP3A7_Y75_V71A]: the enrichment score was inactive: 1.02.
IDPYIYTPFGS [CYP3A4_Y432]: the enrichment score was inactive: 0.893.
Turning to LYDPDYMKVIL [CYP4A22_Y104], the enrichment score was inactive: 0.49.
On the same count and under the same terms, to MEVGQYFFVKC [CYBB_Y324_I325F] belongs inactive: 0.847.
On to GCAGKYIAMVM [CYP19A1_Y441], for which the enrichment score is inactive: 1.2.
QSPQLYKQLCI [DARS1_Y253_M256L]: the enrichment score was inactive: 0.953.
For LRLFSYSTTIR [CYP7B1_Y365_S363F], the enrichment score was inactive: 0.584.
For the molecule GPIFRYDLGGA [CYP11B1_Y81], the enrichment score is inactive: 1.02.
Take NSVLVYRNGDP [DCDC2_Y22_K17N]: the enrichment score was inactive: 0.625.
The same measure, in the same setting: under KAPPTYDTVLQ [CYP3A4_Y347] stands inactive: 0.731; under KLQKKYGPISS [CYP17A1_Y60_Y64S], inactive: 0.433; under LYDPDFMKVIL [CYP4A22_Y104_Y104F], inactive: 1.46.
Regarding IDPFIYTPFGS [CYP3A4_Y432_YF], the enrichment score was inactive: 1.09.
With VKKKLYEEIDQ [CYP17A1_Y329], the enrichment score is inactive: 0.822.
Consider GQAPGYSYTAA [CYCS_Y47], for which the enrichment score is inactive: 0.615.
Take LFDPDYMKVIL [CYP4A22_Y104_YF]: the enrichment score is inactive: 1.09.
In the case of TVLGEYALPKG [CYP24A1_Y407], the enrichment score is inactive: 0.761.
As for ESFCLYPPVPQ [CYP4B1_Y377_R375C], the enrichment score is inactive: 0.649.

Another assay addresses SHP2 N-SH2 domain T42A. The assay is described as above. The conditions noted are these: peptide library: pTyr-Var.
As for KAWGIYDCQQP [CYP3A7_Y75_V71A], the enrichment score is inactive: 0.935.
Turning to IDPYIYTPFGS [CYP3A4_Y432], the enrichment score was inactive: 1.02.
Still for that read-out and setting: to LYDPDYMKVIL [CYP4A22_Y104] belongs inactive: 0.533; to MEVGQYFFVKC [CYBB_Y324_I325F], inactive: 0.741.
Take GCAGKYIAMVM [CYP19A1_Y441]: the enrichment score is inactive: 1.07.
Turning to QSPQLYKQLCI [DARS1_Y253_M256L], the enrichment score was inactive: 0.41.
In the case of LRLFSYSTTIR [CYP7B1_Y365_S363F], the enrichment score was inactive: 0.476.
For GPIFRYDLGGA [CYP11B1_Y81], the enrichment score was inactive: 0.856.
NSVLVYRNGDP [DCDC2_Y22_K17N]: the enrichment score was inactive: 0.782.
Regarding KAPPTYDTVLQ [CYP3A4_Y347], the enrichment score is inactive: 0.574.
KLQKKYGPISS [CYP17A1_Y60_Y64S]: the enrichment score is inactive: 0.435.
Consider LYDPDFMKVIL [CYP4A22_Y104_Y104F], for which the enrichment score was inactive: 1.1.
Still for that read-out and setting: under IDPFIYTPFGS [CYP3A4_Y432_YF] stands inactive: 2.26.
The same measure, in the same setting: under VKKKLYEEIDQ [CYP17A1_Y329] stands inactive: 0.755; under GQAPGYSYTAA [CYCS_Y47], inactive: 0.595.
Take LFDPDYMKVIL [CYP4A22_Y104_YF]: the enrichment score was inactive: 1.2.
Take TVLGEYALPKG [CYP24A1_Y407]: the enrichment score is inactive: 0.651.
For ESFCLYPPVPQ [CYP4B1_Y377_R375C], the enrichment score was inactive: 0.709.

For another assay, the target named is SHP2 N-SH2 domain T52S. The assay is described as above. The conditions noted are these: peptide library: pTyr-Var.
Turning to KAWGIYDCQQP [CYP3A7_Y75_V71A], the enrichment score was inactive: 0.836.
Same read-out and setting: to IDPYIYTPFGS [CYP3A4_Y432] belongs inactive: 0.721; to LYDPDYMKVIL [CYP4A22_Y104], inactive: 0.497.
Consider MEVGQYFFVKC [CYBB_Y324_I325F], for which the enrichment score was inactive: 0.779.
Still for that read-out and setting: under GCAGKYIAMVM [CYP19A1_Y441] stands inactive: 1.26.
Turning to QSPQLYKQLCI [DARS1_Y253_M256L], the enrichment score was inactive: 0.487.
As for LRLFSYSTTIR [CYP7B1_Y365_S363F], the enrichment score is inactive: 0.554.
On the same count and under the same terms, to GPIFRYDLGGA [CYP11B1_Y81] belongs inactive: 1.08; to NSVLVYRNGDP [DCDC2_Y22_K17N], inactive: 0.846; to KAPPTYDTVLQ [CYP3A4_Y347], inactive: 0.702.
As for KLQKKYGPISS [CYP17A1_Y60_Y64S], the enrichment score was inactive: 0.431.
On to LYDPDFMKVIL [CYP4A22_Y104_Y104F], for which the enrichment score was inactive: 1.42.
On to IDPFIYTPFGS [CYP3A4_Y432_YF], for which the enrichment score was inactive: 1.38.
On the same count and under the same terms, to VKKKLYEEIDQ [CYP17A1_Y329] belongs inactive: 0.833.
The same measure, in the same setting: to GQAPGYSYTAA [CYCS_Y47] belongs inactive: 0.555; to LFDPDYMKVIL [CYP4A22_Y104_YF], inactive: 1.24; to TVLGEYALPKG [CYP24A1_Y407], inactive: 0.681.
As for ESFCLYPPVPQ [CYP4B1_Y377_R375C], the enrichment score was inactive: 0.955.

The target in the next assay is SHP2 N-SH2 domain wild-type. Described as above. The conditions noted are these: peptide library: pTyr-Var.
As for KAWGIYDCQQP [CYP3A7_Y75_V71A], the enrichment score is inactive: 1.13.
Turning to IDPYIYTPFGS [CYP3A4_Y432], the enrichment score was inactive: 0.77.
With LYDPDYMKVIL [CYP4A22_Y104], the enrichment score was inactive: 0.749.
MEVGQYFFVKC [CYBB_Y324_I325F]: the enrichment score was inactive: 1.07.
In the case of GCAGKYIAMVM [CYP19A1_Y441], the enrichment score was inactive: 1.4.
On the same count and under the same terms, under QSPQLYKQLCI [DARS1_Y253_M256L] stands inactive: 0.932; under LRLFSYSTTIR [CYP7B1_Y365_S363F], inactive: 0.69.
On to GPIFRYDLGGA [CYP11B1_Y81], for which the enrichment score was inactive: 1.15.
Regarding NSVLVYRNGDP [DCDC2_Y22_K17N], the enrichment score was inactive: 0.624.
Still for that read-out and setting: under KAPPTYDTVLQ [CYP3A4_Y347] stands inactive: 0.837; under KLQKKYGPISS [CYP17A1_Y60_Y64S], inactive: 0.588; under LYDPDFMKVIL [CYP4A22_Y104_Y104F], inactive: 1.28.
Take IDPFIYTPFGS [CYP3A4_Y432_YF]: the enrichment score is inactive: 1.03.
VKKKLYEEIDQ [CYP17A1_Y329]: the enrichment score is inactive: 0.631.
Turning to GQAPGYSYTAA [CYCS_Y47], the enrichment score is inactive: 0.681.
In the case of LFDPDYMKVIL [CYP4A22_Y104_YF], the enrichment score is inactive: 1.28.
With TVLGEYALPKG [CYP24A1_Y407], the enrichment score was inactive: 0.85.
For the molecule ESFCLYPPVPQ [CYP4B1_Y377_R375C], the enrichment score was inactive: 0.923.
